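Five concentrations, 48 hours, 96-well plates. GI50: concentration for 50% inhibition of growth. Definition used: TGI = concentration required for complete inhibition of growth.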 Numbered stars: 1 amine (or outer) side, 2 acyl side, 3 side chain; on linkers, the order of the positions; unused ones are H or OH. Bridge positions count the residues as written; N and C are the ends. Square brackets hold non-standard residues; d marks the D form. Peptide text beside a SMILES is read from it. I, II: the chains in the order shown. Actinocin(9to1) = Cc1c2oc3c(C)ccc(C(=O)[*:1])c3nc-2c(C(=O)[*:2])c(N)c1=O; NMeV = CN[CH](C(=O)O)C(C)C; Sar = CNCC(=O)O
Tested on: NCI-H322M lung
Test: inhibition of tumour cell growth, NCI panel, 48 h

Structure (SMILES) | TGI [µM] | GI50 [µM]
OC1(C(O)(c2ccc(-c3ccccc3)cc2)c2ccc(-c3ccccc3)cc2)CCCCC1 | > 100 | 
CC(=O)NC1C(OCc2ccccc2)OC(CO)C(O)C1OCC(=O)N[C@@H](C)C(=O)N[C@H](CCC(=O)NCCCCNc1c2ccccc2nc2cccc([N+](=O)[O-])c12)C(N)=O (stereo partly drawn) | 53.3 | 
CC(=O)c1cc(S(=O)(=O)c2ccc(O)c(C(C)=O)c2)ccc1O | > 100 | 
C#Cc1cccc(Nc2ncnc3cc(OCCOC)c(OCCOC)cc23)c1 | 17.7 | 
CC1=C(/C=C/C(C)=C\C=C\C(C)=C\C(=O)Nc2ccc3c(c2)OCO3)C(C)(C)CCC1 | > 100 | 60.7
CCN(Cc1cccc(OC)c1)c1ccc(CO)c(Cl)c1 | 42.4 | 11.1
Cc1ccc(S(=O)(=O)CC2CCCn3c2c(C#N)c2ccccc23)cc1 (stereo not drawn) | > 100 | 
Clc1ccc(-n2nnc(C3=NCCN3)c2-c2ccccc2)cc1 | > 100 | 
Cc1c(C#N)cccc1-c1cc(-c2cn(Cc3cccc(C(C)(C)O)n3)nn2)nc(N)n1 | > 100 | 81.3
Nc1ccccc1C#C/C=C\C#Cc1ccccc1C(F)(F)F | 27.9 | 12.1
Cc1cccc(C(C)(C)C)c1NC(=O)C(=O)C(C(=O)/C=C\c1ccccc1)C1OC(=O)c2ccccc21 (stereo not drawn) | > 100 | 
CCCC[C@H]1C(=O)O[C@H](C)[C@H](NC(=O)c2cccc(NC=O)c2O)C(=O)O[C@@H](C)[C@@H]1OC(=O)CC(C)C | 38.2 | 
Cc1cn([C@@H]2C[C@](C)(CO)N(C)O2)c(=O)[nH]c1=O | > 100 | 
O=C(O)c1cc2ccccc2c(O)c1O | 27.7 | 
CC(=O)Nc1ccc(/C=C/[N+](=O)[O-])cc1 | 24.9 | 
N#C[C@H]1C(=O)C(c2nc3ccccc3[nH]2)S[C@H]1c1ccccc1 (stereo partly drawn) | > 100 | 
O=C(O)Cn1ncn(NC(=O)Cc2ccccc2)c1=S | > 10 | 
CCO[C@@H]1OC(=O)[C@](C)(C(C)=O)[C@@H]1C | > 100 | 
O=C(/C=C/c1ccc(OCC(=O)N2CCN(c3ccccc3)CC2)cc1)c1ccc(Cl)cc1 | > 100 | 
CN1CCCC(OC(=O)c2cc3cc(CCl)ccc3oc2=O)C1 (stereo not drawn) | 39.1 | 
CC(=O)O[C@H]1C(=O)[C@@]2(C)C(C(OC(=O)c3ccccc3)[C@]3(O)CC(OC(=O)[C@H](OC(=O)CCC(=O)O)C(NC(=O)c4ccccc4)c4ccccc4)C(C)=C1C3(C)C)C1(OC(C)=O)COC1C[C@@H]2OC(=O)CCC(=O)O (stereo partly drawn) | > 100 | 
Cc1ccc(C(=O)NN=C(/N=N/c2cccc(C)c2)c2ccc(N(C)C)cc2)cc1 | > 100 | 
CC(=O)OC[C@H]1O[C@@H](n2ccc(=O)[nH]c2=O)[C@H](OC(C)=O)[C@@H]1OC(C)=O | > 100 | > 100
C=C1CC(Cn2cc(Br)c(=O)[nH]c2=O)(c2ccc(Br)cc2)OC1=O (stereo not drawn) | 28.1 | 

Structure (SMILES) | TGI [µM] | GI50 [µM]
Nc1ccc2c(SCCSc3c4ccccc4nc4cc(N)ccc34)c3ccccc3nc2c1 | > 100 | 
CCCN(CCCCC(NC(C)=O)C(=O)NCc1ccccc1)C(=O)NCCCl (stereo not drawn) | > 100 | 
O=C1CCC(Cc2ccc(Cl)cc2Cl)C(=O)N1 (stereo not drawn) | > 100 | 
CC(=O)OC1C(=O)C(O)C(C)OC1O[C@@H]1C[C@@]2(C)[C@@H]3CC=C4[C@@H](C[C@H](O)C(=O)C4(C)C)[C@]3(C)C(=O)C[C@]2(C)[C@H]1[C@@](C)(O)C(=O)/C=C/C(C)(C)O (stereo partly drawn) | > 10 | 
NNc1nnc(-c2ccccc2)nc1Cc1ccccc1 | > 100 | 
CCCOC1OC(CS(=O)(=O)O)C(OC(C)=O)C(OC(C)=O)C1OC(C)=O (stereo not drawn) | > 100 | 
CC(=O)NCC1OC2COC(c3ccccc3)OC2C2N=C(c3ccccc3)OC12 (stereo not drawn) | > 100 | 
Cc1cc(C)c(C#N)c(SC(=S)NC(=O)c2ccccc2)n1 | > 100 | 
C/C=C\C(CC(=O)NCCc1c[nH]c2ccccc12)CC(=O)OC (stereo not drawn) | > 100 | 
C[C@]12CCC3[C@@H](C[C@@H]4SC(Nc5ccccc5)=N[C@@]45CC(=O)CC[C@]35C)[C@@H]1CCC2=O (stereo partly drawn) | > 100 | 50.5
OCC1c2ccccc2-n2nc(-c3ccccc3)c(O)c21 (stereo not drawn) | > 100 | 
NC(=O)CC[C@H]1C(=O)N=C(N)N1C(=O)OCc1ccccc1 | > 100 | 
C=C(C)[C@@H]1CC[C@]2(C(=O)OC3OC(COC4OC(CO)C(OC5OC(C)C(O)C(O)C5O)C(O)C4O)C(O)C(O)C3O)CC[C@]3(C)[C@H](CC[C@@H]4[C@@]5(C)CC[C@H](O)[C@@](C)(CO)[C@@H]5CC[C@]43C)[C@@H]12 (stereo partly drawn) | > 10 | 
CCCCCCCCCCCCCCCCCC(=O)OCC(CN(C)CCN(C)C)OC(=O)CCCCCCCCCCCCCCCCC (stereo not drawn) | > 100 | 
Cc1ccc2c(c1)nc(C(=O)c1ccco1)c(C(F)(F)F)[n+]2[O-] | > 100 | > 100
CC(C)NCCNC(=O)c1ccccc1Nc1c(Cl)cccc1Cl | 23 | 
COc1ccc(/C=C/C(=O)c2cc3c(N)c(C(=O)Nc4ccccc4Cl)sc3nc2C)cc1 | > 50 | 4.64
CCN1C2=NC(=O)N(C)C(=O)C2(Cl)C(C(SC)S(=O)(=O)c2ccc(C)cc2)c2ccccc21 (stereo not drawn) | > 100 | 
c1ccc(Cc2nc3ccc(Nc4ncnc5ccccc45)cc3[nH]2)cc1 | > 25 | 21.7
CN(C)CCCn1c2c(c3cnccc3c1=O)C(=O)c1ccccc1-2 | 3.03 | 0.479
CC(=O)CCCCCCCCCCCC[C@@H]1CC[C@H](C)[C@H](O)N1 | > 100 | 
COc1ccc(-c2cc(-c3ccc(OC)c(OC)c3)nc(SCCCC(=O)NO)n2)cc1 | 7.49 | 1.59
O=C(NCCNCCO)N/N=C/c1ccccc1 | > 100 | 
COCCn1cc(-c2csc(-c3c[nH]c4ccccc34)n2)c2cccnc21 | > 100 | > 100

Structure (SMILES) | TGI [µM] | GI50 [µM]
Cc1ccc(NC(=O)CC2C(=O)Nc3ccccc3S2=O)cc1C (stereo not drawn) | > 100 | 
CC12CCC3C(CC=C4CC(O)CCC43C)C1C/C(=C\N1CCCC1)C2=O (stereo not drawn) | > 100 | > 100
O=C1c2cccc3cc([N+](=O)[O-])cc(c23)C(=O)N1CCNCCNCCNCCN1C(=O)c2cccc3cc([N+](=O)[O-])cc(c23)C1=O | 0.711 | 
COC(=O)c1c(C)cccc1C1CN=NC12Cc1cccc(C)c1C2=O (stereo not drawn) | > 100 | 
COc1ccc(Nc2nc(NNC(=O)Cc3ccccc3)nc(NNC(=O)c3ccncc3)n2)cc1 | > 10 | 
S=c1oc(CCCCCCCCc2nn(CNc3ccc(Cl)cc3)c(=S)o2)nn1CNc1ccc(Cl)cc1 | > 100 | 
COc1cc(Nc2nc3cc(N)cc(N)c3nc2-c2ccccc2)cc(OC)c1 | 59.2 | 13.9
N[C@@H](Cc1c[nH]c2ccccc12)C(=O)NC1CCN(C(=O)c2c[nH]c3ccccc23)CC1 | > 100 | > 100
C[C@@H]1C=C(CCCCCCCCCCC[C@H](O)[C@@H]2CCC(=O)O2)C(=O)O1 | > 100 | 42.4
N#CC(=S)Nc1cccc(Cl)c1 | > 100 | 
Cc1cn(C2CC(SCCO)C(CO)O2)c(=O)[nH]c1=O (stereo not drawn) | > 100 | 
CC(=O)Nc1ccc(C(=O)N2N=C(C)/C(=C/c3ccccc3O)C2=O)cc1 | > 100 | 
CC(=O)OCC1(CNc2nc(N)ncc2C#N)CC(CCc2ccccc2)C1 (stereo not drawn) | > 100 | 
O=Cc1c(-c2cc(O)ccc2O)nc2sccn12 | 65 | 22.9
CCOC(=O)COC1=Nc2cc(OC)c(OC)c3nc(Cl)cc(c23)C1=O | 25.1 | 
CCOC(=O)c1nc2ccccc2nc1Nc1ccc(F)cc1 | > 100 | 
CSc1nc2c(c(=O)[nH]1)N=C1c3ccccc3C(=O)C1C(c1ccc(F)cc1)N2 (stereo not drawn) | 74 | 13.9
O=c1n(C2CCCCC2)c(=C(Cl)Cl)c(=C(Cl)Cl)n1C1CCCCC1 | > 100 | 
CSc1nc(NC2OCC(OC(C)=O)C(OC(C)=O)C2OC(C)=O)c2c(OC(C)=O)c(C)c(=O)oc2n1 (stereo not drawn) | > 100 | 
O=C1/C(=C(/Br)I)c2ccccc2-c2ccccc21 | 27.2 | 
COC(CC1(CCNc2ccccc2)C(=O)N(COCC[Si](C)(C)C)c2ccccc21)OC (stereo not drawn) | 30.6 | 
O=C1C(Cl)C(c2cccc(O)c2)N1n1cnc2ccccc2c1=O (stereo not drawn) | > 100 | 
O=C(/C=C/c1cccnc1)NCCCCC1CCN(C(=O)c2ccccc2)CC1 | > 100 | > 100
CCCC1c2c(ccc3ccccc23)Oc2ccc3ccccc3c21 | > 100 | 

Structure (SMILES) | TGI [µM] | GI50 [µM]
CN(c1ccc(Cl)cc1)S(=O)(=O)c1ccccc1 | > 100 | 
CCCCNC(=S)Nc1nc(C(=O)NNC(=S)NCc2ccccc2)cs1 | > 100 | 
N#Cc1c(C(=O)c2ccccc2)cnn1-c1ccccc1 | > 25 | > 25
COC(=O)C(CCS(=O)(=O)CC(=O)C(=O)Nc1cccc(C(C)=O)c1)C(=O)OC | > 100 | 
C(=N\Nc1ccccn1)/c1ccccn1 | > 100 | 0.267
Clc1ccc(Cl)c2[s+]snc12 | > 100 | 
O=C(O)CNc1c2ccccc2nc2ccccc12 | > 100 | 
CCOC(=O)c1c(SCCN2CCCCC2)n(-c2ccccc2)c(=S)n(-c2ccccc2)c1=O | > 74.8 | 
C/C(=N\NC(=O)c1ccncc1)c1cccc(C(F)(F)F)c1 | > 10 | 
Cc1cccc(=O)c([O-])c1.Cc1cccc(=O)c([O-])c1.Cc1cccc(=O)c([O-])c1.Cc1cccc(=O)c([O-])c1.[Th+4] | > 100 | 
Cc1c2oc3c(C)ccc(C(=O)NC4C(=O)NC(Cc5ccc(O)cc5)C(=O)N5CCCC5C(=O)N(C)CC(=O)N(C)C(C(C)C)C(=O)OC4C)c3nc-2c(C(=O)NC2C(=O)NC(Cc3ccc(O)cc3)C(=O)N3CCCC3C(=O)N(C)CC(=O)N(C)C(C(C)C)C(=O)OC2C)c(N)c1=O (stereo not drawn) (I: TYP[Sar][NMeV] / II: TYP[Sar][NMeV]; ester I:1-I:C, II:1-II:C; linker I:N-II:N via Actinocin(9to1); configuration not given here) | > 100 | 
Cc1cn(C2CC(F)C(CO)O2)c(=O)[nH]c1=O (stereo not drawn) | > 100 | > 100
COC(=O)C1CC(C(=O)OC)c2nc3cc(C)ccc3nc21 (stereo not drawn) | > 100 | 
C/C(O)=C(\N=O)C(=O)NCCc1ccccc1 | > 100 | 
CC1Cc2c(cc(N)nc2Br)NC1=O (stereo not drawn) | > 100 | 
COc1ccc(C[C@H]2COC(=O)[C@@H]2Cc2ccccc2)cc1OC | > 100 | 
CCn1c(SCc2nnc(Nc3ccccc3)s2)nc2ccccc2c1=O | 8.41 | 
COCCN(C(=O)c1ccccc1)C1CCC(=O)c2[nH]c3ccccc3c21 (stereo not drawn) | 21.8 | 
Cc1cc(=O)[nH]c(NN2C(Cl)C(=O)C2c2ccco2)n1 (stereo not drawn) | > 100 | 
CC(C)(C)N1CCC1C(N)=O (stereo not drawn) | > 100 | > 100
N#CC(NNC(=O)c1ccccc1O)c1ccc(O)cc1 (stereo not drawn) | > 100 | 
CC(C)C(=O)/C=C/c1ccccc1 | > 100 | 
O=C1CCc2cc3c(cc21)C(C(=O)O)CC3 (stereo not drawn) | > 100 | 
